{
  "source": "the supplement of paper PMC7726561",
  "note": "Over roughly 1,100 sequences, “thermal melting temperature (Tm) of peptide-HLA complex” has its median near 58; the lowest 2% begin near 42. Some of the results follow.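 Further: cell lysates heated 10 min at 37–73 °C, remaining pHLA pulled down with pan-class I antibody, peptides quantified by DIA-MS versus 37 °C, Tm where half the complex is lost.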",
  "data": [
    {"target": "HLA-A*02:01", "experiment": "thermal melting temperature (Tm) of peptide-HLA complex; higher = more thermostable pHLA complex", "conditions": "C1R-A*02:01", "units": {"thermal melting temperature": "°C"}, "values": [
      {"sequence": "FQTEVGKQL", "thermal melting temperature": 47.6},
      {"sequence": "YLSSLQPRL", "thermal melting temperature": 61.4},
      {"sequence": "LLIDDEYKV", "thermal melting temperature": 54.9},
      {"sequence": "WLDETLAQV", "thermal melting temperature": 59.3},
      {"sequence": "SLFPGQVVI", "thermal melting temperature": 52.3},
      {"sequence": "YLMEVTHDL", "thermal melting temperature": 65.2},
      {"sequence": "KLLEESIANL", "thermal melting temperature": 48.1},
      {"sequence": "KVIDYVPGI", "thermal melting temperature": 58.8},
      {"sequence": "VLLEPFIHQV", "thermal melting temperature": 55.9},
      {"sequence": "TLYEAVREV", "thermal melting temperature": 61.6},
      {"sequence": "TLNDREYQL", "thermal melting temperature": 58.4},
      {"sequence": "GLDPNKPPEL", "thermal melting temperature": 61},
      {"sequence": "TLLGHEFVL", "thermal melting temperature": 60.4},
      {"sequence": "SLLPEGPPAI", "thermal melting temperature": 57.8},
      {"sequence": "KLLETELLQEI", "thermal melting temperature": 60.2},
      {"sequence": "SLFPGKLEV", "thermal melting temperature": 60.4},
      {"sequence": "GLWRGEEVTL", "thermal melting temperature": 50.7},
      {"sequence": "QLVEQVEQI", "thermal melting temperature": 43.7},
      {"sequence": "LLSAEPVPA", "thermal melting temperature": 59.3},
      {"sequence": "TLLTFFHEL", "thermal melting temperature": 57.4},
      {"sequence": "IIIPEIQKV", "thermal melting temperature": 51},
      {"sequence": "TLHSIIISL", "thermal melting temperature": 56.7},
      {"sequence": "SLFAGGMLRV", "thermal melting temperature": 57.2},
      {"sequence": "KLSAEKVEI", "thermal melting temperature": 54.9},
      {"sequence": "ALLDKLYAL", "thermal melting temperature": 64.9},
      {"sequence": "RLQEDPPAGV", "thermal melting temperature": 60.9},
      {"sequence": "ILLDSGLEKA", "thermal melting temperature": 46.7},
      {"sequence": "KLDDLTQDLTV", "thermal melting temperature": 60.6},
      {"sequence": "KLSEIPLTL", "thermal melting temperature": 58.5},
      {"sequence": "LLLDQLTKA", "thermal melting temperature": 57.6},
      {"sequence": "RLDEAFDFV", "thermal melting temperature": 57},
      {"sequence": "LLTDYILKV", "thermal melting temperature": 58.8},
      {"sequence": "ILEENIPVL", "thermal melting temperature": 51.6},
      {"sequence": "RLPDDDPTAV", "thermal melting temperature": 55.4},
      {"sequence": "IQVTKVTQV", "thermal melting temperature": 53.7},
      {"sequence": "NMVDIIHSV", "thermal melting temperature": 57.2},
      {"sequence": "LLYQGPHNTL", "thermal melting temperature": 59.8},
      {"sequence": "LQLDKEFQL", "thermal melting temperature": 58.8},
      {"sequence": "TLFPVRLLV", "thermal melting temperature": 55.8},
      {"sequence": "ILANDGVLLAA", "thermal melting temperature": 59.6},
      {"sequence": "KLLDPSTPVHI", "thermal melting temperature": 49.7},
      {"sequence": "NVIERLQEA", "thermal melting temperature": 57.2},
      {"sequence": "YPSEFATYL", "thermal melting temperature": 56.5},
      {"sequence": "KVFSAFITV", "thermal melting temperature": 56.9},
      {"sequence": "YLPEDFIRV", "thermal melting temperature": 61.4},
      {"sequence": "GVIDGHIYAV", "thermal melting temperature": 61.7},
      {"sequence": "GLIEDHFDVTV", "thermal melting temperature": 61.6},
      {"sequence": "KLGEILANL", "thermal melting temperature": 57.1},
      {"sequence": "ALFPGDVDRL", "thermal melting temperature": 54.3},
      {"sequence": "KLLDLSDSTSV", "thermal melting temperature": 58.9},
      {"sequence": "TIAEVGKWLQA", "thermal melting temperature": 57.3},
      {"sequence": "YLDIKGLLDV", "thermal melting temperature": 56},
      {"sequence": "TLVDFPLHL", "thermal melting temperature": 58.2},
      {"sequence": "VVDAVVTQV", "thermal melting temperature": 54.5},
      {"sequence": "RLAAFYSQV", "thermal melting temperature": 54.9},
      {"sequence": "FLLDGFPRTV", "thermal melting temperature": 62.8}
    ]}
  ]
}
